{"source": "the supplement of paper PMC4894684", "note": "Counter-ions that a name gives are not always drawn. ± gives the standard deviation of the averaged measurements. The whole screen tested about 1,000 compounds, of which about 15 (2%) showed an effect of 50% or more. The list shows a part of the results.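 Further: confluent HFF monolayers, run in parallel with the Toxoplasma growth screen as a host toxicity counterscreen.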", "data": [{"system": "HFF", "test": "uninfected host cell viability relative to vehicle control; higher = less host cell toxicity", "settings": "5 µM; 72 h; oxygen 21 %", "units": {"uninfected host cell viability": "%"}, "values": [{"smiles": "O=C1CN=C(c2cccc(Br)c2)c2oc3ccccc3c2N1", "uninfected host cell viability": "96.8 ± 3.9"}, {"smiles": "CN1C[C@H](CNC(=O)OCc2ccccc2)C[C@@H]2c3cccc4c3c(cn4C)C[C@H]21", "note": "[Metergoline]", "uninfected host cell viability": "86.8 ± 1.7"}, {"smiles": "CCCN1CCC[C@@H]2Cc3n[nH]cc3C[C@H]21", "note": "[(-)-Quinpirole hydrochloride]", "uninfected host cell viability": "86.7 ± 3.7"}, {"smiles": "CCC(Oc1ccc(Cl)cc1)C(=O)OC1C[C@H]2CC[C@@H](C1)N2C", "note": "(stereo not given in full) [SM-21 maleate]", "uninfected host cell viability": "83.9 ± 0.85"}, {"smiles": "CC12NC(Cc3ccccc31)c1ccccc12", "note": "(single isomer, unassigned; (+)) [(+)-MK 801 maleate]", "uninfected host cell viability": "85.9 ± 2.7"}, {"smiles": "COC1(C[S@+]([O-])c2ccccc2)CCN(CCc2c[nH]c3ccc(F)cc23)CC1", "uninfected host cell viability": "80.8 ± 2.7"}, {"smiles": "Cc1nnc2n1-c1sc(CCC(=O)N3CCOCC3)cc1C(c1ccccc1Cl)=NC2", "uninfected host cell viability": "86.4 ± 0.97"}, {"smiles": "CCC[C@@H]1CC2=CC(=O)CC[C@]2(C)[C@H]2CC[C@@]3(C)[C@@H](CC[C@@]3(O)CCC(=O)O)[C@H]12", "uninfected host cell viability": "98.1 ± 1.5"}, {"smiles": "c1ccc2c(c1)OCC(C1=NCCN1)O2", "note": "(stereo not given) [Idazoxan hydrochloride]", "uninfected host cell viability": "89.1 ± 3"}, {"smiles": "c1ccc(C2CNCc3ccccc32)cc1", "note": "(stereo not given) [4-Phenyl-1,2,3,4-tetrahydroisoquinoline hydrochloride]", "uninfected host cell viability": "92.6 ± 6.4"}, {"smiles": "NC(C(=O)O)c1nn[nH]n1", "note": "(racemic) [(RS)-(Tetrazol-5-yl)glycine]", "uninfected host cell viability": "86.1 ± 2.1"}, {"smiles": "CC(=O)N1CC[N+](C)(C)CC1", "note": "[4-Acetyl-1,1-dimethylpiperazinium iodide]", "uninfected host cell viability": "95 ± 3.1"}, {"smiles": "CC[C@@H](CO)NC(=O)[C@@H]1C=C2c3cccc4c3c(cn4C)C[C@H]2N(C)C1", "note": "[Methysergide maleate]", "uninfected host cell viability": "81.2 ± 3.8"}, {"smiles": "COc1cc2c(c(OC)c1OC)-c1ccc(OC)c(=O)cc1[C@@H](NC(C)=O)CC2", "note": "[Colchicine]", "uninfected host cell viability": "76.5 ± 1.7"}, {"smiles": "C[N+]1(C)CCc2cc3c(cc2[C@H]1[C@@H]1OC(=O)c2c1ccc1c2OCO1)OCO3", "note": "[(-)-Bicuculline methiodide]", "uninfected host cell viability": "95.12 ± 0.22"}, {"smiles": "C[N+]1(C)CCc2cc3c(cc2[C@H]1[C@@H]1OC(=O)c2c1ccc1c2OCO1)OCO3", "note": "[(-)-Bicuculline methochloride]", "uninfected host cell viability": "94.2 ± 1.5"}, {"smiles": "CN1CC[C@@H]2CN3CCc4cccc(c43)[C@@H]2C1", "note": "[SDZ SER 082 fumarate]", "uninfected host cell viability": "86.07 ± 0.53"}, {"smiles": "O=c1[nH]oc2c1CCNC2", "note": "[THIP hydrochloride]", "uninfected host cell viability": "86.9 ± 2.3"}, {"smiles": "CN1[C@@H]2CC[C@H]1C[C@@H](OC(=O)c1cc(Cl)cc(Cl)c1)C2", "uninfected host cell viability": "85.4 ± 2.2"}, {"smiles": "CNCCc1cnc[nH]1", "note": "[N α-Methylhistamine dihydrochloride]", "uninfected host cell viability": "87 ± 1.2"}, {"smiles": "O=C(O)c1nn(Cc2ccc(Cl)cc2Cl)c2ccccc12", "note": "[Lonidamine]", "uninfected host cell viability": "93.5 ± 2.3"}, {"smiles": "CN(C)c1ccc(/C=C2\\CCCN=C2c2cccnc2)cc1", "note": "[DMAB-anabaseine dihydrochloride]", "uninfected host cell viability": "94.4 ± 2.6"}, {"smiles": "CCC1(C2=NCCN2)Cc2ccccc2O1", "note": "(stereo not given) [Efaroxan hydrochloride]", "uninfected host cell viability": "85.9 ± 3"}, {"smiles": "CC[C@@H](CO)NC(=O)[C@@H]1C=C2c3cccc4[nH]cc(c34)C[C@H]2N(C)C1", "note": "[Methylergometrine maleate]", "uninfected host cell viability": "86.3 ± 2.3"}, {"smiles": "CCOC(=O)c1ncn2c1[C@@H]1CCCN1C(=O)c1cc(OC)ccc1-2", "uninfected host cell viability": "83.2 ± 2.8"}, {"smiles": "NC(N)=Nc1ccc2[nH]c3c(c2c1)C[C@@]1(O)[C@H]2Cc4ccc(O)c5c4[C@@]1(CCN2CC1CC1)[C@H]3O5", "note": "[GNTI dihydrochloride]", "uninfected host cell viability": "81.96 ± 0.66"}, {"smiles": "CN1C2CCC1CC(OC(c1ccccc1)c1ccc(Cl)cc1)C2", "note": "(stereo not given)", "uninfected host cell viability": "76.9 ± 5.6"}, {"smiles": "CN1CCc2cc3c(cc2C1C1OC(=O)c2c1ccc1c2OCO1)OCO3", "note": "(single isomer, unassigned; (+)) [(+)-Bicuculline]", "uninfected host cell viability": "87.1 ± 1.3"}, {"smiles": "CCOC(=O)c1cncn1[C@H](C)c1ccccc1", "note": "[Etomidate]", "uninfected host cell viability": "93.19 ± 0.22"}, {"smiles": "Cc1ncsc1CCCl", "note": "[Chlormethiazole hydrochloride]", "uninfected host cell viability": "97.6 ± 1.6"}, {"smiles": "O=C(CCCN1CCC2(CC1)C(=O)NCN2c1ccccc1)c1ccc(F)cc1", "note": "[Spiperone hydrochloride]", "uninfected host cell viability": "85.6 ± 2.4"}, {"smiles": "CCCCC1(C2CCCC2)Cc2cc(OCCCC(=O)O)c(Cl)c(Cl)c2C1=O", "note": "(stereo not given)", "uninfected host cell viability": "93.3 ± 5"}, {"smiles": "Fc1ccc(C(OCCN2CCN(C/C=C/c3ccccc3)CC2)c2ccc(F)cc2)cc1", "uninfected host cell viability": "82 ± 0.94"}, {"smiles": "O=c1cccc2n1C[C@@H]1CNC[C@H]2C1", "note": "[(-)-Cytisine]", "uninfected host cell viability": "88.1 ± 0.92"}, {"smiles": "N[C@@H]1C[C@H]1c1ccccc1", "note": "[Tranylcypromine hydrochloride]", "uninfected host cell viability": "89.4 ± 2.9"}, {"smiles": "O[C@H]1[C@H](O)[C@@H](O)CN2CC[C@H](O)[C@H]12", "note": "[Castanospermine]", "uninfected host cell viability": "82.95 ± 0.65"}, {"smiles": "O=C(O)C1=CCCN(CCOC(c2ccc(C(F)(F)F)cc2)c2ccc(C(F)(F)F)cc2)C1", "note": "[CI 966 hydrochloride]", "uninfected host cell viability": "87.3 ± 2"}, {"smiles": "CN1[C@@H]2C[C@@H](OC(=O)[C@H](CO)c3ccccc3)C[C@H]1[C@@H]1O[C@@H]12", "note": "[Scopolamine hydrobromide]", "uninfected host cell viability": "92.2 ± 2.3"}, {"smiles": "CC(=O)[C@H]1CC[C@H]2[C@@H]3CC[C@H]4C[C@](C)(O)CC[C@]4(C)[C@H]3CC[C@]12C", "note": "[Ganaxolone]", "uninfected host cell viability": "95 ± 1.5"}, {"smiles": "O=C1NC(=O)c2c1c1c3ccccc3n3c1c1c2c2ccccc2n1[C@H]1CC[C@@H]3O1", "uninfected host cell viability": "39.2 ± 11"}, {"smiles": "NC(=S)N/N=C/c1coc2ccccc2c1=O.[Cl][Cu][Cl]", "uninfected host cell viability": "98.2 ± 1.8"}, {"smiles": "Cc1onc(O)c1CC(N)C(=O)O", "note": "(racemic)", "uninfected host cell viability": "98.2 ± 3.1"}, {"smiles": "Cc1onc(O)c1CC(N)C(=O)O", "note": "(racemic) [(RS)-AMPA hydrobromide]", "uninfected host cell viability": "84.6 ± 0.87"}, {"smiles": "Oc1ccc2c3c1O[C@H]1c4[nH]c5ccccc5c4C[C@@]4(O)[C@@H](C2)N(CC2CC2)CC[C@]314", "note": "[Naltrindole hydrochloride]", "uninfected host cell viability": "81.09 ± 0.49"}, {"smiles": "Cc1cc(C)cc(C(=O)OC2C[C@H]3CC[C@@H](C2)N3C)c1", "note": "(stereo not given in full) [Tropanyl-3,5-dimethylbenzoate]", "uninfected host cell viability": "86.53 ± 0.39"}, {"smiles": "S=C=Nc1cccc(C2(N3CCCCC3)CCCCC2)c1", "note": "[Metaphit]", "uninfected host cell viability": "82.9 ± 1"}, {"smiles": "O=C1Nc2ccccc2C2(CCN(CCc3ccc(C(F)(F)F)cc3)CC2)O1", "uninfected host cell viability": "87.7 ± 5.5"}, {"smiles": "COC(=O)[C@@H](N)CCCNC(=N)N[N+](=O)[O-]", "note": "[L-NAME hydrochloride]", "uninfected host cell viability": "95.8 ± 1.7"}, {"smiles": "NCC(O)c1ccc(O)cc1", "note": "(stereo not given) [Octopamine hydrochloride]", "uninfected host cell viability": "97 ± 3.6"}, {"smiles": "CCCN(CCC)C1Cc2cc(OC)c(OC)cc2C1", "uninfected host cell viability": "78.55 ± 0.26"}]}]}
